In a collection of fitness landscapes (doi:10.1016/j.celrep.2020.107928):
Over roughly 81,000 sequences, “one-hybrid fitness for binding NBS DNA” has its median near -0.1; the highest 2% begin near 0.36. The list shows a part of the results.

B1: Caulobacter ParB omega fusion; a variant is named by its letters at X, in order, B8GW30 (parent)
chain: MESVVVGEPGMSEGRRGLGRGLSALLGEVDAAPAQAPGEQLGGSREAPIEILQRNPDQPRRTFREEDLEDLSNSIREKGVLQPILVRPSPDTAGEYQIVAGERAWRAAQRAGLKTVPIMVRELDDLAVLEIGIIENVQRADLNVLEEALSYKVLMEKFERTQENIAQTIGKSXSHVANXMRLLXLPDEVQSYLVSGELTAXHARAIAAAADPVALAKQIIEGGLSVRETEALARKAPNLSAGKSKGGRPPRVKDTDTQALESDLSSVLGLDVSIDHRGSTGTLTITYATLEQLDDLCNRLTRGI

Variants of: B1
Test: one-hybrid fitness for binding NBS DNA (the Noc-binding site; scaled: cognate 1, non-cognate 0); higher = stronger binding
Conditions: with NBS DNA site
How it was run: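 Caulobacter ParB libraries with four specificity codons randomised were screened by bacterial one-hybrid selection in the E. coli USO strain, using a HIS3 reporter whose site lies 19 bp from the promoter. Selection ran for 48 hours at 37°C on M9 lacking histidine, with 0.1 mM IPTG and 5 mM 3-AT. Plasmids were Illumina-sequenced before and after selection, three replicate libraries were pooled, and variants with under 10 reads were dropped. Fitness is the log change in each variant's read ratio to wild type, rescaled against the cognate and non-cognate sites.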

Point of comparison: IRKR, “one-hybrid fitness for binding NBS DNA” value 0.67. Against it:
- ACMC — lower, ≤ 0.2
- VWCS — lower, ≤ 0.2
- VRSN — lower, ≤ 0.2
- VCLG — lower, ≤ 0.2
- MHAC — lower, ≤ 0.2
- YFRS — lower, ≤ 0.2
- VDVC — lower, ≤ 0.2
- LARC — lower, ≤ 0.2
- MRRR — lower, 0.286
- QCTC — lower, ≤ 0.2
- RHWA — lower, ≤ 0.2
- THQG — lower, ≤ 0.2
- MAYW — lower, ≤ 0.2
- STPY — lower, ≤ 0.2
- SWNW — lower, ≤ 0.2
- WAKY — lower, ≤ 0.2
- KTTW — lower, ≤ 0.2
- GGLC — lower, ≤ 0.2
- KSCV — lower, ≤ 0.2
- YYRT — lower, ≤ 0.2
- MNLC — lower, ≤ 0.2
- CRYC — lower, ≤ 0.2
- PTHM — lower, ≤ 0.2
- VMMS — lower, ≤ 0.2
- FTYC — lower, ≤ 0.2
- KVHI — lower, ≤ 0.2
- KMAR — lower, 0.299
- PYCH — lower, ≤ 0.2
- ATRW — lower, ≤ 0.2
- TECT — lower, ≤ 0.2
- PPYM — lower, ≤ 0.2
- AIAR — lower, ≤ 0.2
- QFYR — lower, ≤ 0.2
- TKDD — lower, ≤ 0.2
- GPAH — lower, ≤ 0.2
- SPGS — lower, ≤ 0.2
- PHLH — lower, ≤ 0.2
- GAFS — lower, ≤ 0.2
- TIYS — lower, ≤ 0.2
- WNES — lower, ≤ 0.2
- EAMF — lower, ≤ 0.2
- WQCW — lower, ≤ 0.2
- NIKS — lower, ≤ 0.2
- GDMS — lower, ≤ 0.2
- QRWN — lower, ≤ 0.2
- YCNT — lower, ≤ 0.2
- PEAK — lower, ≤ 0.2
- DPCA — lower, ≤ 0.2
- HYCC — lower, ≤ 0.2
- EKNC — lower, ≤ 0.2
- LYMR — lower, ≤ 0.2
- PRDV — lower, ≤ 0.2
- NVHP — lower, ≤ 0.2
- TTGC — lower, ≤ 0.2
- ECIG — lower, ≤ 0.2
- CQRR — lower, ≤ 0.2
- RRIF — lower, ≤ 0.2
- DKRC — lower, ≤ 0.2
- SACT — lower, ≤ 0.2
- KSYS — lower, ≤ 0.2
- YMCL — lower, ≤ 0.2
- FPSH — lower, ≤ 0.2
- CSSM — lower, ≤ 0.2
- ILQK — lower, ≤ 0.2
- NTVA — lower, ≤ 0.2
- EIDN — lower, ≤ 0.2
- SILD — lower, ≤ 0.2
- QLGT — lower, 0.369
- PRFV — lower, ≤ 0.2
- ASES — lower, ≤ 0.2
- MMNC — lower, ≤ 0.2
- TDRR — lower, ≤ 0.2
- RFPR — lower, ≤ 0.2
- SNVS — lower, ≤ 0.2
- LNNA — lower, ≤ 0.2
- HLQW — lower, ≤ 0.2
- QYAV — lower, ≤ 0.2
- AICA — lower, ≤ 0.2
- HILT — lower, ≤ 0.2
- GAQA — lower, ≤ 0.2
- ARAH — lower, ≤ 0.2
- DAIS — lower, ≤ 0.2
- EDSW — lower, ≤ 0.2
- RLVI — lower, ≤ 0.2
- WPIG — lower, ≤ 0.2
- DTSW — lower, ≤ 0.2
- VPWF — lower, ≤ 0.2
- DSYP — lower, ≤ 0.2
- AVQF — lower, ≤ 0.2
- QESA — lower, ≤ 0.2
- GYVT — lower, ≤ 0.2
- KTSY — lower, ≤ 0.2
- RSDW — lower, ≤ 0.2
- VWCG — lower, ≤ 0.2
- MSVV — lower, ≤ 0.2
- EYYR — lower, ≤ 0.2
- KNKL — lower, ≤ 0.2
- VYNY — lower, ≤ 0.2
- DMNF — lower, ≤ 0.2
- DQKY — lower, ≤ 0.2
- RMYE — lower, ≤ 0.2
- RHYD — lower, ≤ 0.2
- VQWT — lower, ≤ 0.2
- TNTS — lower, ≤ 0.2
- CNIL — lower, ≤ 0.2
- VASQ — lower, ≤ 0.2
- QRPG — lower, ≤ 0.2
- RRAC — lower, 0.328
- LKKV — lower, ≤ 0.2
- TTNG — lower, ≤ 0.2
- HASA — lower, ≤ 0.2
- IGKL — lower, ≤ 0.2
- YDIE — lower, ≤ 0.2
- YQYS — lower, ≤ 0.2
- RQSD — lower, ≤ 0.2
- MVRG — lower, ≤ 0.2
- GIPH — lower, ≤ 0.2
- WICS — lower, ≤ 0.2
- MKST — lower, ≤ 0.2
- KSFA — lower, ≤ 0.2
- HAKI — lower, ≤ 0.2
- IPIK — lower, ≤ 0.2
- YGEL — lower, ≤ 0.2
- MSAM — lower, ≤ 0.2
- VANH — lower, ≤ 0.2
- LFHF — lower, ≤ 0.2
- ATKL — lower, ≤ 0.2
- RFAT — lower, ≤ 0.2
- FTIM — lower, ≤ 0.2
- TPAR — lower, ≤ 0.2
- RRWP — lower, ≤ 0.2
- HNFG — lower, ≤ 0.2
- EHRG — lower, ≤ 0.2
- YIAC — lower, ≤ 0.2
- SMSV — lower, ≤ 0.2
- HNQP — lower, ≤ 0.2
- AYHR — lower, ≤ 0.2
- TGKS — lower, ≤ 0.2
- AQLL — lower, ≤ 0.2
- YLVS — lower, ≤ 0.2
- YVVV — lower, ≤ 0.2
- TKLS — lower, ≤ 0.2
- PRDW — lower, ≤ 0.2
- RKYQ — lower, 0.205
- HIKS — lower, ≤ 0.2
- NTIL — lower, ≤ 0.2
- FHNL — lower, ≤ 0.2
- LKPT — lower, ≤ 0.2
- HYSA — lower, ≤ 0.2
- QIAT — lower, 0.28
- NILT — lower, ≤ 0.2
- TVPI — lower, ≤ 0.2
